± gives the standard deviation of the averaged measurements. This is one part of the list.
System: PfAP2-LT AP2 domain (GST-tagged)
Assay: gcPBM binding intensity (ln(normalized median fluorescence intensity)); higher = stronger DNA binding
Outline: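 GST-tagged P. falciparum DNA-binding domains produced in E. coli were incubated for 1 h on an Agilent 4 × 180k array of primer-extended double-stranded 36-bp intergenic genomic probes with negative controls. Binding intensity is the highest Masliner-normalised natural-log median intensity across replicate spots of either probe orientation, with bound protein detected by Alexa488 anti-GST antibody at 488 nm.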

Row | Sequence | gcPBM binding intensity (ln)
1 | AATAGAAAAAAAAAATGTACAAAATGTTTATAAAAA [XGTACX_site4635] | 8.79 ± 0.52
2 | TCATTTTAAGGAAAAAGTACAAAATAATATGTTCCT [XGTACX_site1903] | 8.49 ± 0.4
3 | GATGTGTAAATAAGGATATATAACAATCAACAAAAC [XGTACX_negctrl_site494] | 9.18 ± 0.47
4 | TTCTTAATACAAATATGTACATATATATATATATAT [XGTACX_site757] | 9.31 ± 0.042
5 | ACCTATTTCAAACACACACACACACCCACAAACATA [CACACA_site977] | 10.1 ± 0.33
6 | ACGAATATAGGATGTTTGCACTGTACCAATAAATGA [GTGCAC_site9808] | 8.81 ± 0.42
7 | AAATTACCCTTGTGTACACATATATTATCTGTATTA [CACACA_site4514] | 9.16 ± 0.4
8 | AAATGAATATAAAATATACACACTTATATATTGAAT [CACACA_site202] | 8.9 ± 0.42
9 | AAAAAATTTTAATATGCATGTAATTTTGCTTTTTCA [TGCATGCA_site1044] | 8.56 ± 0.39
10 | AGCACGCACAGACACACACACATATTTATATTTATA [CACACA_site6291] | 9.72 ± 0.39
11 | TAATATAGGGGTGTTCAAATAAATTTTGTTATTTTT [CACACA_negctrl_site1203] | 8.9 ± 0.25
12 | GAAGGAAATAAATCAACACACATATATTATAGATAT [CACACA_site7095] | 9.18 ± 0.46
13 | ATAATGTAAAATAAATGTACGCAATATATAAAAAAT [XGTACX_site5747] | 9.17 ± 0.41
14 | TATTGAAAGTGAATTATAACATTAAAAATATATATA [TGCATGCA_negctrl_site566] | 8.51 ± 0.49
15 | TGAATATGTAAATGCACACCAAAAAAAAAAAAAAAA [CACACA_site3566] | 8.87 ± 0.42
16 | CAATATAAAAGACACACACACAAACATATATTTATA [CACACA_site7697] | 10 ± 0.37
17 | AAAATAAAAAAAATGAATTAGTTAAATGAAAAATAA [CACACA_negctrl_site1294] | 8.48 ± 0.48
18 | ATTATATAATAATGCATGCACCTTATTTTCATTTCA [GTGCAC_site9922] | 9.14 ± 0.36
19 | TTTCTTTTTTTGGGCACACAAAATTTTCTCATTTTA [CACACA_site68] | 8.8 ± 0.4
20 | TGAATAAATAAACACACACACATATATATATCTGTA [CACACA_site4184] | 9.89 ± 0.23
21 | TATCTTCATATATGGTGTACAGATTTTTTTTTTTTT [XGTACX_site5545] | 8.69 ± 0.49
22 | ATAAAATTATTATATACATGCAAAATTAATATATTG [TGCATGCA_site507] | 8.47 ± 0.36

Row | Sequence | gcPBM binding intensity (ln)
23 | AAATAATAAAGTATAACACACATATTTATTTATATA [CACACA_site7822] | 8.79 ± 0.43
24 | AAATAGAAAAAATATACACACACTTATTAAATAAAA [CACACA_site3313] | 9.16 ± 0.35
25 | CTGATATATTATTTATCTGAATATATTAATATGTAT [GTGCAC_negctrl_site82] | 8.54 ± 0.45
26 | AAAATTAAAAAAATATGTACTTATGGGTAACATCAT [XGTACX_site5548] | 8.57 ± 0.38
27 | GTTATACATTTGAAAAGTACTCATGATTTTTTTTTT [XGTACX_site8177] | 8.65 ± 0.42
28 | AATATTCAATATAAAGTGCATTATTGTGCCCCTAAT | 8.69 ± 0.42
29 | TTTTTATTGTTATACTTATATTATTTTATGATTAAA [XGTACX_negctrl_site262] | 8.49 ± 0.54
30 | ATAAAAATCAAAAAAAATACATAATAGTAATAATAA [GTGCAC_negctrl_site481] | 8.73 ± 0.54
31 | GATTATACAAAATATACACACGTGTACAGAAATATT [CACACA_site8305] | 9.3 ± 0.35
32 | ATATATTTATTTATATGTACATATTATATATTATAG [XGTACX_site3371] | 8.88 ± 0.47
33 | TTATATTAATTTTGTTGTACTATTTGTGCATTAAAT [XGTACX_site4790] | 8.68 ± 0.52
34 | AAGATATGAACATTTTGTACTTAAAAATTCAATATT [XGTACX_site7103] | 8.49 ± 0.45
35 | CACAGACACGGACACACACACATATATAATATATAT [CACACA_site4495] | 9.87 ± 0.42
36 | TAAACAAATAAATATTGTACATTTTTTCCTTTTAAT [XGTACX_site5594] | 8.48 ± 0.53
37 | AAGGATAATATATTAGAACACACATATATATGTAAA [CACACA_site7942] | 8.92 ± 0.47
38 | TTTATATAAAATTATTGTACAGTTTTAATATTTTAA [XGTACX_site6807] | 8.27 ± 0.54
39 | TACATACACAAATACACACACAAATACATACACAAA [CACACA_site704] | 9.73 ± 0.36
40 | ACATTTTATATATGTAGTACATATTATAGATAATTT [XGTACX_site1976] | 8.68 ± 0.4
41 | AGTTGGATACGAAGATGTACAATAATAATAATTAAG [XGTACX_site3561] | 8.88 ± 0.54
42 | ATCAAAAACATACCTACACACACAATATGTATATAT [CACACA_site9171] | 9.51 ± 0.28
43 | TCACTATAATAATTTACACACATTTTAAGAAAATGG [CACACA_site5867] | 8.74 ± 0.42
44 | TATTTTATTTTTTTATGTACACAAAAAAAAAAAAAA [XGTACX_site945] | 8.16 ± 0.2

Row | Sequence | gcPBM binding intensity (ln)
45 | TATTATGTTTATTAAACATGCATATATTTATTTATA [TGCATGCA_site187] | 8.64 ± 0.35
46 | ATATTTTATCATGTTTAATATTTATGTGGACATAAA [GTGCAC_negctrl_site275] | 8.48 ± 0.36
47 | CAATGGTACATACATACACACACACTAATAAAAAAA [CACACA_site8450] | 9.62 ± 0.4
48 | TACAATCCATATTGTTGTACATTTATAAAATTTACA [XGTACX_site3053] | 8.45 ± 0.39
49 | GTATATATATAAGAAGAAATATATAAATAAAATATA [CACACA_negctrl_site503] | 8.75 ± 0.49
50 | GCTTATTAATATCATACACACATAGATATATTTATA [CACACA_site3104] | 8.91 ± 0.39
51 | TAAAAAATATAAACTGCACACACACTAATAAAGAAA [CACACA_site8119] | 9.59 ± 0.32
52 | AATATATAAATGTTGTGTACTAAGCAATATATTTTA [XGTACX_site2483] | 8.78 ± 0.45
53 | ATTCGTCACATTTTTTGATATATATATATATATATA [CACACA_negctrl_site1785] | 9.7 ± 0.11
54 | CTATTATCGGTTCCTACACACAAATATATATGTCTA [CACACA_site3579] | 9.28 ± 0.42
55 | ATATAGTTGTCATATTGTACACTTTAGGGTTGGTTA [XGTACX_site7339] | 8.94 ± 0.47
56 | AGGACAAGGGTTACATGTACATATATATATATATAT [XGTACX_site901] | 10.2 ± 0.14
57 | CCTAGAAAAAAGAACTGTACATATATATATAAATAT [XGTACX_site1680] | 8.8 ± 0.41
58 | ATAAATAAAAATAGAACACACATATGTTTTTTTTTT [CACACA_site3556] | 8.7 ± 0.47
59 | TTAATTGAAACTTATTGTACTTTTTTTTTTTTTTTT [XGTACX_site8162] | 8.25 ± 0.62
60 | TGAAAAAATATAATTTGTACATATCAGGCAAAAATG [XGTACX_site1824] | 8.73 ± 0.41
61 | ATATGCAGAGACTGTTTGCACTTTTTTATTTTATGT [GTGCAC_site9695] | 9.04 ± 0.43
62 | ATTATAATTACTCTAGTGCATTATAAATATGAATAA | 8.49 ± 0.39
63 | CTCAAATTTATTAGTGGTACATAACCAAGGAAATAA [XGTACX_site225] | 8.84 ± 0.49
64 | AAGTTATTTATATATACACACAAATATAAATAATAT [CACACA_site1228] | 8.88 ± 0.41
65 | ATAAATTATATTATTGAACACACGTTTGGTAATGTT [CACACA_site2662] | 8.81 ± 0.35
66 | AAAAAAATAATAAAAAGTACAAAATGTAGAAAATGT [XGTACX_site5018] | 9.43 ± 0.42

Row | Sequence | gcPBM binding intensity (ln)
67 | AAAAAATAAAACATATATAATATATAATATATATAT [GTGCAC_negctrl_site447] | 8.69 ± 0.4
68 | AATGTGAAAACGTGTACACATTTTATTTAATTTATC [CACACA_site5966] | 8.93 ± 0.43
69 | ATATATATTATATATTGTACATATTATATTCATTAT [XGTACX_site1766] | 8.81 ± 0.41
70 | TTTATTAATTTATAGTGTACATATTAATAATATATT [XGTACX_site7949] | 8.55 ± 0.41
71 | AACAAGGCCCGGTACTGTACATTTTTTCATAACATT [XGTACX_site6134] | 8.8 ± 0.44
72 | GTATGTATATTTATCTGTACATATTTATGTATTCTT [XGTACX_site2112] | 9.11 ± 0.47
73 | TATATACATATATACACACACATATATTATATATAT [CACACA_site275] | 9.31 ± 0.28
74 | AAAATATAAATTCATGTGCACATATATATTTTGTTA [GTGCAC_site9782] | 8.78 ± 0.47
75 | AGGAAAAAATCGAGTAGTACACATTTAGAAATATAA [XGTACX_site8019] | 8.85 ± 0.45
76 | ATATCACATATATATATATATATATATATATATATA [XGTACX_negctrl_site463] | 9.955 ± 0.021
77 | AAAATTGATATATGCACACATATATATATTAAATAT [CACACA_site763] | 9.05 ± 0.42
78 | TTTCATTCTGGTATCACACATTTATTTTCTAGTTTA [CACACA_site4286] | 8.87 ± 0.47
79 | AAAAAAAAAAAAAACACACATACACATATATTTTTA [CACACA_site3893] | 8.87 ± 0.43
80 | AGTTATAATAAAAAATGTACGTATTATCATTAAGAA [XGTACX_site4244] | 8.77 ± 0.35
81 | TATAAATATAAAAGGAGTACAAATATATATATATAT [XGTACX_site1386] | 9.4 ± 0.12
82 | TTTTTTTTTATAGCTAAACACACATAAGAATATATG [CACACA_site8282] | 8.57 ± 0.5
83 | AAAAAAATTAAACATACACACGTTACTATTTTTATA [CACACA_site5009] | 8.86 ± 0.57
84 | GAAAATAAAAAATATGAACACACATATATAACAAAA [CACACA_site7975] | 9.18 ± 0.47
85 | TCCTAATATATGTATGCACACACAATATATACATAT [CACACA_site9111] | 9.39 ± 0.21
86 | CATATCAATAATATCACACATATATGTGATTTTATT [CACACA_site5053] | 8.9 ± 0.35
87 | TTATTAATTTATAAATGTACGAATTTTTTATTTAAC [XGTACX_site7605] | 8.39 ± 0.47
88 | CCCCTTAATTAAAGGAGTACTATTTGTGAATAATAT [XGTACX_site4715] | 9.13 ± 0.11

Reference: the supplement of paper PMC11417369
